Like-named read-outs stand apart in the source and are kept apart here. For some assays here: Not every detail of the peptide structures is certain; ends, links or a residue may be inferred. For some assays here: At least one structure is not confirmed: it was looked up by name or label, or the drawing left a doubt. *1 amine or outer side, *2 acyl side, *3 side chain or, on linkers, in order; H or OH if unused. Where a SMILES comes first, the peptide text is derived from it. Bridges are numbered along the chain shown (N, C = ends). Roman numbers before positions name the chains, in order. [ ]: non-standard residue; d: D form. Diglycolyl = O=C(COCC(=O)[*:2])[*:1]; NMeR = CN[C@@H](CCCNC(=N)N)C(=O)O; β3hE = N[C@@H](CCC(=O)O)CC(=O)O; X1 = O=C(c1ccccc1C[*:2])[*:1]; Pen = CC(C)(S)[C@H](N)C(=O)O
Assays:
[1] = biological target: T1, α4β1 (Homo sapiens, UniProt P05556+P13612); experiment: α4β1-VCAM Competition ELISA; type: binding; details: read-out: ELISA A4B1
T1 construct: purchased R&D Systems 5668-A4
T1 sequence (P13612 34-977 limits assumed): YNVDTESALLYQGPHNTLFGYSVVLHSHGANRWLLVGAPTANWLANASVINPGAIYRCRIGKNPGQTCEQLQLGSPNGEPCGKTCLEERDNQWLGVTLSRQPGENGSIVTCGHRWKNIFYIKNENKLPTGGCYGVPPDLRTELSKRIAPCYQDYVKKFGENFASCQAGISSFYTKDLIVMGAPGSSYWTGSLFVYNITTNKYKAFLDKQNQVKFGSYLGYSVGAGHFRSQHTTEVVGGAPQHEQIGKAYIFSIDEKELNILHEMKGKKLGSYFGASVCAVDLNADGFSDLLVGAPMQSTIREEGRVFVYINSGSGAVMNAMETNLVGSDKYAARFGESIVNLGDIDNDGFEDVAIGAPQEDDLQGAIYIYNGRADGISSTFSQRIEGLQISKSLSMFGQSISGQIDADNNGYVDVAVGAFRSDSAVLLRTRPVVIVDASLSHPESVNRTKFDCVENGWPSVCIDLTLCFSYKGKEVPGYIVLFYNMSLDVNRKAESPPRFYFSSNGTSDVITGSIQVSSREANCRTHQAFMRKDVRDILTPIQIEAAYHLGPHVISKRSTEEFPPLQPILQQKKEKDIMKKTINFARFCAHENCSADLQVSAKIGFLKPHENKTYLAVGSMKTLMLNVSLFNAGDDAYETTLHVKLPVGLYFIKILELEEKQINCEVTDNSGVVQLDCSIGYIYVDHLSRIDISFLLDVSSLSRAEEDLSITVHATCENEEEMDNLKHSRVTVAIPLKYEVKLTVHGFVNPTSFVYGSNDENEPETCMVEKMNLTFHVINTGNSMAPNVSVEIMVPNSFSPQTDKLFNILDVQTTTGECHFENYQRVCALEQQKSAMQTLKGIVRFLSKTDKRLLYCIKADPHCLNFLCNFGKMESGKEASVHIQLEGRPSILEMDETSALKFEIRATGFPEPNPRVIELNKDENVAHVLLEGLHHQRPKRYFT
T1 sequence (P05556 21-728 limits assumed): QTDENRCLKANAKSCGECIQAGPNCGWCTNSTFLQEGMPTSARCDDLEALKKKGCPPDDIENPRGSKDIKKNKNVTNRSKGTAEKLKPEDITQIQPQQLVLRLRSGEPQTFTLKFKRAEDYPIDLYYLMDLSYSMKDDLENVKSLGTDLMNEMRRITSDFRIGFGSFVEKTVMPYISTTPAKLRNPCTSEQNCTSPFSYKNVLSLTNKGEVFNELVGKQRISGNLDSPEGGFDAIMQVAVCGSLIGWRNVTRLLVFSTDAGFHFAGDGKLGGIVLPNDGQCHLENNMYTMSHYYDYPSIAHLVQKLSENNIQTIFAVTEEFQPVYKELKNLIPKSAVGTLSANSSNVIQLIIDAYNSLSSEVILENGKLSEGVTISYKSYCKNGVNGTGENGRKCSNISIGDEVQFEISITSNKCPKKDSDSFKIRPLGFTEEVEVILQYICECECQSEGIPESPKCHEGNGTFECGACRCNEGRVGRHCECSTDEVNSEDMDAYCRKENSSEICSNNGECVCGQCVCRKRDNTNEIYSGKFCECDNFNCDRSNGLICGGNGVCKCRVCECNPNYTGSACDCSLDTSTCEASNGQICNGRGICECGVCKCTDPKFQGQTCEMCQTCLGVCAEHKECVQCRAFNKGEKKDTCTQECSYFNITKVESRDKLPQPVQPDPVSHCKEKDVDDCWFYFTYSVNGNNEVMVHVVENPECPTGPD
Procedure: α4β1-VCAM Competition ELISA
A Nunc MaxiSorp plate was coated with rh VCAM-1/CD106 Fc chimera (R&D #862-VC) at 400 ng/well in 50 ul per well in 1×PBS and incubated overnight at 4° C. The solution was removed by shaking and then blocked with 250 ul of 1% BSA in 1×PBS per well. The wells were then incubated at room temperature for 1 hr with shaking. Each well was then washed once with wash buffer (50 mM Tris-HCl pH7.6, 100 mM NaCL, 1 mM MnCl2 or MgCl2, 0.05% Tween-20). 25 ul of serial dilutions of peptides starting at 200 μM in assay buffer (Assay buffer: 50 mM Tris-HCl pH7.6, 100 mM NaCl, 1 mM MnCl2 or MgCl2, 0.05% Tween-20) was added to each well. Additionally, 25 μl of α4β1 (R&D Systems #5668-A4) was added to each well at a fixed concentration of 120 nM. The final peptide and α4β1 concentrations were 100 μM and 60 nM, respectively. The plates were then incubated at 37° C. for 2 hr. The solution was then removed by shaking and each well was washed three times with wash buffer. 50 ul of 9F10 antibody at 4 ug/ml (purified mouse anti-human CD49d, BD Bioscience Cat #555502) was then added to each well, and the plate was incubated at room temperature for Ihr with shaking. The solution was again removed by shaking, and each well was washed three times with wash buffer. 50 μl of peroxidase-conjugated AffiniPure Goat anti-mouse IgG (Jackson immune research cat #115-035-003) diluted in 1:5000 in assay buffer was added to each well. The plate was incubated at room temperature for 30 min with shaking. Each well was then washed 3 times with wash buffer. 100 ul of TMB was then added to each well and closely observe during developing time. The reaction was stepped with 2N H2SO4 and absorbance was read at 450 nm.

[2] = Simulated Gastric Fluid (SGF) Stability Assay; type: in vitro ADME; details: porcine pepsin, pH 2, 37° C.; monomers, Table 6
Procedure: Simulated Gastric Fluid (SGF) Stability Assays
Studies were carried out in simulated gastric fluid (SGF) to evaluate intestinal stability of the peptide molecules of the instant invention. SGF was prepared by adding 20 mg NaCl, 32 mg porcine pepsin (MP Biochemicals, catalog 02102599), and 70 μl HCl to 10 ml water (final pH=2). Aliquots of SGF (0.5 ml each) were pre-warmed at 37° C. To start the reaction, 1 μl of peptide stock solution (10 mM in DMSO) was added to 0.5 ml SGF and thoroughly mixed such that the final peptide concentration was 20 μM. The reactions were incubated at 37° C. with gentle shaking. At each time point (0, 15, 30, 60 min) 50 μl aliquots were removed and added to 200 μl acetonitrile containing 0.1% formic acid to quench the reaction. Samples are stored at 4° C. until the end of the experiment and centrifuged at 10,000 rpm for 5 minutes. Aliquots of the supernatant were removed, diluted 1:1 into distilled water containing internal standard, and analyzed by LCMS/MS. Percent remaining at each timepoint was calculated based on the peak area response ratio of test to compound to internal standard. Time 0 was set to 100%, and all later timepoints were calculated relative to time 0. Half-lives were calculated by fitting to a first-order exponential decay equation using GraphPad.

[3] = biological target: Jurkat E6.1 cells (Homo sapiens, UniProt P05556+P13612); experiment: α4β1-VCAM Cell Adhesion Assay; type: cell-based; details: thioether peptide dimers, Table 7; read-out: Cell Adhesion A4B1
Jurkat E6.1 cells, sequence (P13612 34-1032): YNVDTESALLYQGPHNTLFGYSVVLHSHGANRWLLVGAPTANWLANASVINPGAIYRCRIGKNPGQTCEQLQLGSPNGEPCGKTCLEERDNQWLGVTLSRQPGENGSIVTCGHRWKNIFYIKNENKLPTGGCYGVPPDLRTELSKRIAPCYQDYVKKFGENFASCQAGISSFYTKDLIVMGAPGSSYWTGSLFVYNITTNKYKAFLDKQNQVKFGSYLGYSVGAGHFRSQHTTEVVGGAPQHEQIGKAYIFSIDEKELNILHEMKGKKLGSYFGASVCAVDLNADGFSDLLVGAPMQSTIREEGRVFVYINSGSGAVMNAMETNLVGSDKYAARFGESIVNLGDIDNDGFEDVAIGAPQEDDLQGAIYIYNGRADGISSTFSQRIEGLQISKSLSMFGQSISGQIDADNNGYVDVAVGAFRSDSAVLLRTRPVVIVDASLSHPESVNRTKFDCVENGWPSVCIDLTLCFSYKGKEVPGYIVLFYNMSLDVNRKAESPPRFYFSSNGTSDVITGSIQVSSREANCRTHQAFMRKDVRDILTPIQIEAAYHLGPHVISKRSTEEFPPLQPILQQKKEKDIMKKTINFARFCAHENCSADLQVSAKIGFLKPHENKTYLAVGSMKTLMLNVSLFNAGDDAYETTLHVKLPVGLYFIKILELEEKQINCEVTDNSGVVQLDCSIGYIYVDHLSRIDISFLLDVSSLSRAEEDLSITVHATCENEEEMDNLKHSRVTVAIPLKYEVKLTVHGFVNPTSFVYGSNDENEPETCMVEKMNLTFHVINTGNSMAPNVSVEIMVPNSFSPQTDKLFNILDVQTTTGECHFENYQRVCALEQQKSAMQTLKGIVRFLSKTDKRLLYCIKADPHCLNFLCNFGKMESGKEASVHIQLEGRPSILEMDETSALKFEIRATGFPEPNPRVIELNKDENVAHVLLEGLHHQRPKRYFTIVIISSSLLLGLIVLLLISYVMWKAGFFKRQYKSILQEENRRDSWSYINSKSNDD
Jurkat E6.1 cells, sequence (P05556 21-798): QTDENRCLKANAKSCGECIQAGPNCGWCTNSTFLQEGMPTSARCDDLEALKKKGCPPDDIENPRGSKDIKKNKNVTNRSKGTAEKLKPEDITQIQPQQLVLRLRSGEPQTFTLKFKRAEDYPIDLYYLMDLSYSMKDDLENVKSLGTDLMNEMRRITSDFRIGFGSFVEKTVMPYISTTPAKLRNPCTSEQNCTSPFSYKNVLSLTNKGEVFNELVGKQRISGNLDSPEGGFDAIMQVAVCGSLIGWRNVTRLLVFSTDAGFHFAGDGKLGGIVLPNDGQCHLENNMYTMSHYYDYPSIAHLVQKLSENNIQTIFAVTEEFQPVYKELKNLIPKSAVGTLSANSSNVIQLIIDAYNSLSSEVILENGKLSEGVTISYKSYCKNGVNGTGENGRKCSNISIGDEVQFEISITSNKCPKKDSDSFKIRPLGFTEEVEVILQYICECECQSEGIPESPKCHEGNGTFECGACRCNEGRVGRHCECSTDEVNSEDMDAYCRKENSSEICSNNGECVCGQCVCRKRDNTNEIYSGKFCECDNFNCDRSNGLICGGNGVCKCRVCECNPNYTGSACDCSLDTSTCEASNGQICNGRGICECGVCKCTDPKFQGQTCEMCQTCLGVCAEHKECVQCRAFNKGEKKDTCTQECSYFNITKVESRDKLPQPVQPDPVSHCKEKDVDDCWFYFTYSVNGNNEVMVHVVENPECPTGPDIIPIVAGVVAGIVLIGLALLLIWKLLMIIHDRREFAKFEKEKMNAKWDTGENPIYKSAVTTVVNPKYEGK
Procedure: α4β1-VCAM Cell Adhesion Assay
Jurkat E6.1 cells (Sigma #88042803) were cultured in RPMI 1640 HEPES medium (Invitrogen #22400-089) supplemented with 10% serum (Fetal Bovine Serum, Invitrogen #16140-071), 1 mM sodium pyruvate (Invitrogen #11360-070), 2 mM L-glutamine (Invitrogen #25030-081) and Penicillin-Streptomycin (Invitrogen #15140-122) at 100 units of penicillin and 100 μg of streptomycin per ml. The cells were washed two times in DMEM medium (ATCC #30-2002) supplemented with 0.1% BSA, 10 mM HEPES pH 7 and 1 mM MnCl2. The cells were re-suspended in supplemented DMEM medium at a density of 4×10^6 cells/ml.
A Nunc MaxiSorp plate was coated with rh VCAM-1/CD106 Fc chimera (R&D #862-VC) at 400 ng per well in 50 μl per well in 1×PBS and incubated at 4° C. overnight. The solution was then removed by shaking, blocked with 250 μl per well PBS containing 1% BSA, and incubated at 37° C. for 1 hr. The solution was removed by shaking. Peptides were diluted by serial dilution in a final volume of 50 μl per well (2× concentration). To each well, 50 μl of cells (200,000 cells) were added and the plate was incubated at 37° C., 5% CO2 for 30-45 min to allow cell adhesion. The wells were washed manually three times (100 μl per wash) with supplemented DMEM. After the final wash, 100 μl/well of supplemented DMEM and 10 ul/well of MTT reagent (ATTC cat #30-1010K) were added. The plate was incubated at 37° C., 5% CO2 for 2-3 hrs until a purple precipitate is visible. 100 ul of Detergent Reagent (ATTC cat #30-1010K) is added to each well. The plate was covered from the light, wrapped in Parafilm to prevent evaporation, and left overnight at room temperature in the dark. The plate was shaken for 5 min and the absorbance at 570 nm is measured. To calculate the dose response, the absorbance value of control wells not containing cells was subtracted from each test well.

[4] = thioether monomer peptides, Table 6

Q: With CC(C)C[C@@H]1NC(=O)[C@H]([C@@H](C)O)NC(=O)[C@H](CC(=O)O)NC(=O)[C@H](CO)NC(=O)[C@H](CCCNC(=N)N)N(C)C(=O)c2ccccc2CSC(C)(C)[C@@H](C(=O)N[C@@H](Cc2c[nH]c3ccccc23)C(=O)N[C@@H](CCC(=O)O)C(=O)N[C@H](CCCCN)C(N)=O)NC1=O [compound 56] (HELM PEPTIDE1{[meR].S.D.T.L.[Pen].W.E.[dK].[am]}|CHEM1{[O=C(c1ccccc1C[*:2])[*:1]]}$PEPTIDE1,CHEM1,1:R1-1:R1|PEPTIDE1,CHEM1,6:R3-1:R2$$$V2.0) as the compound, how does the IC50 [1, 4] read?
A: 100 to 1000 nM

Q: Which IC50 [1, 4] does the source give for CC(C)C[C@@H]1NC(=O)[C@H]([C@@H](C)O)NC(=O)[C@H](CC(=O)O)NC(=O)[C@H](CO)NC(=O)[C@H](CCCNC(=N)N)N(C)C(=O)c2ccccc2CSC(C)(C)[C@@H](C(=O)N[C@@H](Cc2c[nH]c3ccccc23)C(=O)N[C@H](CCC(=O)O)C(N)=O)NC1=O [compound 97] (HELM PEPTIDE1{[meR].S.D.T.L.[Pen].W.[dE].[am]}|CHEM1{[O=C(c1ccccc1C[*:2])[*:1]]}$PEPTIDE1,CHEM1,1:R1-1:R1|PEPTIDE1,CHEM1,6:R3-1:R2$$$V2.0) here?
A: 100 to 1000 nM

Q: For CC(C)C[C@@H]1NC(=O)[C@H]([C@@H](C)O)NC(=O)[C@H](CC(=O)O)NC(=O)[C@H](CO)NC(=O)[C@H](CCCNC(=N)N)N(C)C(=O)c2ccccc2CSC(C)(C)[C@@H](C(=O)N[C@@H](Cc2c[nH]c3ccccc23)C(=O)N[C@H](CCC(=O)O)C(N)=O)NC1=O [compound 98] (HELM PEPTIDE1{[meR].S.D.T.L.[Pen].W.[dE].[am]}|CHEM1{[O=C(c1ccccc1C[*:2])[*:1]]}$PEPTIDE1,CHEM1,1:R1-1:R1|PEPTIDE1,CHEM1,6:R3-1:R2$$$V2.0), which “SGF (Porcine) (Half-life, Min)” value [2] is on record?
A: >180 min

Q: For CC(C)C[C@@H]1NC(=O)[C@H]([C@@H](C)O)NC(=O)[C@H](CC(=O)O)NC(=O)[C@H](CO)NC(=O)[C@H](CCCNC(=N)N)N(C)C(=O)c2ccccc2CSC(C)(C)[C@@H](C(=O)N[C@@H](Cc2ccc(O)cc2)C(=O)N[C@@H](CCC(=O)O)CC(=O)N[C@H](CCCCNC(=O)COCC(=O)NCCCC[C@@H](NC(=O)C[C@H](CCC(=O)O)NC(=O)[C@H](Cc2ccc(O)cc2)NC(=O)[C@H]2NC(=O)[C@H](CC(C)C)NC(=O)[C@H]([C@@H](C)O)NC(=O)[C@H](CC(=O)O)NC(=O)[C@H](CO)NC(=O)[C@H](CCCNC(=N)N)N(C)C(=O)c3ccccc3CSC2(C)C)C(N)=O)C(N)=O)NC1=O [compound 165] (I: [NMeR]SDTL[Pen]Y[β3hE][dK]-NH2 / II: [NMeR]SDTL[Pen]Y[β3hE][dK]-NH2; linker I:9-II:9 via Diglycolyl; linker I:N-I:6, II:N-II:6 via X1), which IC50 ([1]; thioether peptide dimers, Table 7) is on record?
A: 25 to 100 nM

Q: What about the IC50 [3] of the same compound?
A: > 100000 nM

Reference: patent publication US20260217767A1, “NOVEL A4B7 THIOETHER PEPTIDE DIMER ANTAGONISTS” (Protagonist Therapeutics, Inc., priority 2014, published 2026)
